This is an account of results in US20190284272A1 (published 2019).

Changes are numbered by the printed parent chain.

For assay [1], the target named is T1, mutant feline IL-31 11E12 protein (Feline_IL31_11E12_mutant) (feline).
T1 construct: also called feline 11E12 mutant; 11E12 IL-31 mutant
T1 chain: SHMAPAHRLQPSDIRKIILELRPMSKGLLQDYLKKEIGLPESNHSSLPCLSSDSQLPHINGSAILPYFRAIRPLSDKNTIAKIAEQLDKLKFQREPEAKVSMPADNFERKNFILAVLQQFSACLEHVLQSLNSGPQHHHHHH
Briefly: indirect ELISA, IL-31 mutant coated at 1 µg/ml, receptor-Fc in solution (FIG. 8). On the procedure: (§1) To analyze the ability of these receptor forms to bind wildtype and mutant IL-31 proteins, and indirect ELISA was run by coating 100 ul of each respective protein on an immulon 2HB plate (1 μg/ml) overnight in carb/bicarb buffer (sigma C3041-100CAP) at 4 C. The ELISA plates were then blocked with 5% NFDM blocking buffer in PBST for 1 hour at room temperature followed by binding of multiple concentrations of each receptor construct at room for 1 hour. Following washing with PBST, the presence of the bound receptor (Fc fusion) was identified using mouse anti-human IgG1 (Lifetech A10684, 1:500 dilution) for 1 hour at room temperature. The wells were again washed with PBST and developed with KPL sureblue 3,3′,5,5′-tetra-methylbenzidine (TMB) microwell substrate. […] These observations are in contrast to previous reports indicating the IL-31 protein initially binds to the IL-31Ra subunit and further recruits OSMR to the site. As the biological role of IL-31 is still being determined, it is of great importance to understand the dynamics of receptor binding and the potential consequences to attenuation of its role in diseases such as atopic dermatitis. For this reason, consideration was further given to these observations when characterizing antibodies the bind to epitopes capable of disrupting the ability of IL-31 to recognize IL-31Ra and OSMR.

Assay [2] deals with T2, mutant feline IL-31 15H05 protein (Feline_IL31_15H05_mutant) (feline).
T2 construct: also called feline 15H05 mutant; 15H05 IL-31 mutant
T2 chain: T1 chain with A81D, A84I, P103A, D105A
Described as above. The procedure:
as §1

B1: Feline_OSMR_hIgG1_Fc (Fc fusion)
chain: EPLSLAPESLEVSIDSARQCLHLKWSVHNLAYHQELKMVFQIEISRIKTSNVIWVENYSTTVKRNQVLRWSWESKLPLECAKHSVRMRGAVDDAQVPELRFWSNWTSWEEVDVQSSLGHDPLFVFPKDKLVEEGSNVTICYVSRSHQNNISCYLEGVRMHGEQLDPNVCVFHLKNVPFIRETGTNIYCKADQGDVIKGIVLFVSKVFEEPKDFSCETRDLKTLNCTWAPGSDAGLLTQLSQSYTLFESFSGKKTLCKHKSWCNWQVSPDSQEMYNFTLTAENYLRKRSVHLLFNLTHRVHPMAPFNVFVKNVSATNATMTWKVHSIGNYSTLLCQIELDGEGKVIQKQNVSVKVNGKHLMKKLEPSTEYAAQVRCANANHFWKWSEWTRRNFTTAEAA[gap - human IgG1 Fc]
notes: Extracellular domain of feline OSMR fused to human IgG1 Fc, made with its native signal peptide in ExpiCHO; also called feline OSMR receptor subunit; soluble feline OSMR
With B1, the binding result in assay [1] and in assay [2] was “no binding” in each case.

B2: Feline_IL31Ra_HIgG1_Fc_X1_Fn3 (Fc fusion)
chain: VLPAKPENISCVFYYEENFTCTWSPEKEASYTWYKVKRTYSYGYKSDICPSDNSTRGNHTFCSFLPPTITNPDNYTIQVEAQNADGIIKSDITHWSLDAITKIEPPEIFSVKPVLGVKRMVQIKWIRPVLAPVSSTLKYTLRFKTVNSAYWMEVNFTKEDIDRDETYNLTGLQAFTEYVLALRCATKESMFWSGWSQEKMGTTEE[gap - human IgG1 Fc]
notes: Extracellular domain of feline IL-31Ra (with its expected N-terminal proximal fibronectin III domain) fused to human IgG1 Fc, native signal peptide, ExpiCHO; also called feline IL-31 Ra receptor subunit
Take B2: the binding result in assay [1] and in assay [2] was “no binding” throughout.
